# Data published in US6800770B2, “Anti-spasticity of an eicosanoid analog” (Virginia Commonwealth University, priority 2002, dated 2004).
# Tested on: CB1 as well as other G-protein-coupled receptors (rat hippocampal membranes)
# Experiment: [35S]GTPγS binding to rat hippocampal membranes
# Assay type: biochemical
smiles,measurement,value
"CCCCC/C=C\C/C=C\C/C=C\C/C=C\CCCC(=O)N(Cc1ccc(O)c(Cl)c1)Cc1ccc(O)c(Cl)c1 [O-2093, N,N-Di-3-chloro-4-hydroxybenzylarachadonamide]",GTPgammaS binding (Emax),−30 (−11.3 to −39.9)
